In publication PMC4336329 (PLoS ONE, 2015):
Out of some 310,000 compounds screened, about 14,000 (4.5%) showed an effect of 50% or more. Effects have a minus sign here. The list shows a part of the results.

Target: human ether-à-go-go-related gene (hERG) potassium channel (human, UniProt Q12809)
Test: primary screen, population patch clamp on CHO cells stably expressing hERG
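Note: peak tail current of the secondary pulse compared with the same well before compound.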

Sequence of human ether-à-go-go-related gene (hERG) potassium channel (Q12809 whole entry, looked up): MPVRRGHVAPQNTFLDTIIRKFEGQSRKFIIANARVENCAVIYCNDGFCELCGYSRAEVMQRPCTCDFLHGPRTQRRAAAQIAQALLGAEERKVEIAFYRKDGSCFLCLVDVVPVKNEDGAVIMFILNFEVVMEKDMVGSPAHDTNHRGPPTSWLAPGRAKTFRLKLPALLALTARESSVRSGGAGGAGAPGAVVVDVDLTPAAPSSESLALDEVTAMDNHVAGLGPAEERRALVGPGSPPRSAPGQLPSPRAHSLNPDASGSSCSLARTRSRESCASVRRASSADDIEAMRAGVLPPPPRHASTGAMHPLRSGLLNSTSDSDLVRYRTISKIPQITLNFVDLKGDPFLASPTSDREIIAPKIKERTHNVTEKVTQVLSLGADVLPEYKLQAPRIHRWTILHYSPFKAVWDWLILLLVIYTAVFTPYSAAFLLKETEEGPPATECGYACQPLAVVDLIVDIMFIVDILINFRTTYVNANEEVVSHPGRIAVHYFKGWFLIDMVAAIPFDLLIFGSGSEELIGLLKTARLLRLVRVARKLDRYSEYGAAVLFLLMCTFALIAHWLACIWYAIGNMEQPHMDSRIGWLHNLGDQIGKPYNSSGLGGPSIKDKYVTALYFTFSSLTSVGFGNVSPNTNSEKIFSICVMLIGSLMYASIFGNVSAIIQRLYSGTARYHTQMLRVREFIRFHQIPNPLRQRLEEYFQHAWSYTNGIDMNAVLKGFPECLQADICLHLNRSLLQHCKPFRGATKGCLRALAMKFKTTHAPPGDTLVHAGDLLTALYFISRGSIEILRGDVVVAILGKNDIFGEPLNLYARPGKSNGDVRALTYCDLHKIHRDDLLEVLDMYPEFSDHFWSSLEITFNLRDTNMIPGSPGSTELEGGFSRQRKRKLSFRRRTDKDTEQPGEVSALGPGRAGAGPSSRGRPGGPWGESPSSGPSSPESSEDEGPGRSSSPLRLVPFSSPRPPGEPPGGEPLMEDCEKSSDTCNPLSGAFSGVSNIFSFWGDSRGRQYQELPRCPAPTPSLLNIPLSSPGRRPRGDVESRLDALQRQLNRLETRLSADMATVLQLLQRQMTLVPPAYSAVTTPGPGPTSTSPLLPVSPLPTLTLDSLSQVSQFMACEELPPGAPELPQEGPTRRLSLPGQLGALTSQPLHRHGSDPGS

SMILES | hERG current change (%, negative = inhibition) at 10uM [%]
COc1ccc(-c2c(C#Cc3ccsc3)c3cc(-c4ccc5c(c4)OCO5)ccc3n2C)cc1 | 21.7
O=c1cc(-c2ccccc2)nc(N2CCN(Cc3ccc4c(c3)OCO4)CC2)[nH]1 | -6.28
CCn1c(SCC(=O)Nc2ccc(N(C)C)cc2)nnc1-c1ccco1 | -8.45
Cc1nnc(NC(=O)c2ccc(S(=O)(=O)N(C)Cc3ccccc3)cc2)o1 | -8.57
Cc1cc(C)cc(NC(=O)N2CCC(c3nc4ccccc4o3)CC2)c1 | -3.58
COc1ccc(CN2CCNC(=O)C2CC(=O)N(C)Cc2nccs2)cc1OC (stereo not shown) | 13.7
COc1cc(NC(=O)CSc2nnc3ccccn23)cc(OC)c1 | -7.11
O=C(Nc1ccc([N+](=O)[O-])cc1)c1cn(-c2ccccc2)nc1-c1cc2ccccc2o1 | 8.92
Oc1ccc(N=Cc2ccc(OCc3ccccc3)cc2)cc1 | 26.2
COc1ccc(OCC(O)CN2CCN(c3ccc(OC)cc3)CC2)cc1.Cl (stereo not shown) | -37.7
CCOC(=O)N1CCC(N2Cc3cccc(C(=O)NCc4ccc5c(c4)OCO5)c3C2=O)CC1 | -19.5
CCOc1ccc(NC(=O)Nc2nnc(CC(=O)NCc3ccccc3)s2)cc1 | 21.7
Nc1ccc(NC2C[C@@H](C(=O)O)NC2=O)cc1 (stereo partly shown) | 13.2
C=CCC1(CC=C)CCCN1C(=O)C1CCC(=O)N(CCc2ccc(OC)cc2)C1 (stereo not shown) | -18.6
O=C1C=C(Nc2ccc(F)cc2)c2ccccc2C1=O | -0.176
COC(=O)CCC(=O)NC(=S)Nc1ccc(S(=O)(=O)Nc2cc(C)on2)cc1 | 22.2
Cc1ccccc1Nc1nc(N)nc(CSc2ccccc2)n1 | -21
O=C(CN1CCCCCC1)NN(Cc1ccccc1)c1ccccc1.O=C(O)C(=O)O | -72.3
Cn1c(CC(=O)Nc2ccc(Cl)c(Cl)c2)nnc1SCC(=O)NCc1ccccc1 | 4.53
CC(C)CCN(C(=O)CNC(=O)c1cccs1)C(C(=O)NC1CCCC1)c1ccncc1 (stereo not shown) | -0.388
O=C(Cn1cnc2ccccc2c1=O)NCC(=O)N1CCN(c2ccccn2)CC1 | 6.51
COc1ccc(S(=O)(=O)Oc2c(OC)cc(C(=S)N3CCOCC3)cc2OC)cc1 | 5.24

SMILES | hERG current change (%, negative = inhibition) at 10uM [%]
Cn1cc(CCC(=O)NCc2ccc3c(c2)OCO3)c2ccccc21 | -8.91
CC(C)C(C)NC(=O)COc1ncnc2sccc12 (stereo not shown) | 30.6
CCOc1ccc(S(=O)(=O)N(C)CC(=O)NCc2ccccn2)cc1Cl | -27.8
CCN(CC)C(=O)N1CCN(S(=O)(=O)c2ccc(C)c(C)c2)CC1 | 3.67
Cn1c(CNc2nc(-c3ccccc3)cs2)nnc1SCC(=O)OC1CCCCC1 | -10.1
Cc1cc(C)c2c(n1)SCC(=O)N2CC(=O)NCCC1=CCCCC1 | 8.75
Cc1ccc2[nH]cc(C(=O)CCl)c2c1 | -7.65
Cc1cc(Cl)nc2c(C(C)C)cccc12 | 33
O=C(Nn1cnc2ccccc2c1=O)c1ccc(Cl)c([N+](=O)[O-])c1 | 5.55
Cc1ccc(C2=NC(C)(C)NC2=O)cc1 | 1.42
O=C(c1ccccc1Oc1ccc(C(F)(F)F)cc1[N+](=O)[O-])N1CCOCC1 | 1.22
CC(C)NC(=S)Nc1ccc2cn[nH]c2c1 | 8.24
O=C(NC1CCCCC1)c1ccc(Cl)c(NC(=O)c2ccccc2F)c1 | -7.68
Cc1nc2ccccc2c(=O)n1/N=C/c1ccc(O)cc1O | 10.4
CCNC(=O)n1cc(-n2cncn2)c(-c2ccccc2)n1 | -0.882
O=C(Nc1cccn2ncnc12)c1ccc(Cl)cc1 | -2.08
Cc1ccc(NS(=O)(=O)c2ccc(C(=O)N3CCN(c4ncccn4)CC3)cc2)cc1 | -29.9
Cc1cccc2cc(C#N)c(SCC#N)nc12 | 26
O=C(NCCc1ccccc1)C1CCC(CNc2nc(=S)[nH]c3ccccc23)CC1 (stereo not shown) | 9.54
O=C(NCCCc1ccccc1)C(=O)c1c[nH]c2ccccc12 | 11.6
COc1ccc(CCNC(=O)CN2C(=O)CCSc3ccccc32)c(OC)c1 | 0.44
Cc1cccc(CCNC(=O)CCc2nc(-c3ccccc3F)no2)c1 | -1.49

SMILES | hERG current change (%, negative = inhibition) at 10uM [%]
Cc1ccc2nc(NC(=O)CN3CCOCC3)sc2c1 | -17.4
CNC(=S)N(CCCN(C)C)Cc1cc2cc3c(cc2[nH]c1=O)OCCO3 | 14.5
COC(=O)c1ccc2c(=O)[nH]c(COC(=O)c3cccc(S(=O)(=O)N4CCOCC4)c3)nc2c1 | 9.87
COc1ccc(-c2noc(CSc3nc4ccccc4c(=O)n3-c3ccccc3)n2)cc1 | -7.31
COCCn1nnnc1C(C(C)C)N(Cc1cccnc1)Cc1ccccc1Cl (stereo not shown) | -18.5
O=C(Cn1c(-c2ccccn2)nc2ccccc21)NCCN1CCOCC1 | 4.17
CC(=O)OCc1c(C(F)(F)F)nn(C)c1SCc1ccc(Cl)cc1 | 8.19
CC(C)Oc1ccc(/C=N/NC(N)=S)cc1 | 15.3
O=C1Nc2cc(C(=O)N3CCN(c4ccccn4)CC3)ccc2S/C1=C\c1ccccc1 | 1.94
Nc1nc(NCc2ccco2)nc(NCCO)c1[N+](=O)[O-] | 3.22
CN(C)CCNC(=O)/C=N/O | 10.3
COc1ccc2c(-c3ccccc3)cc(SCC(=O)NC3CCS(=O)(=O)C3)nc2c1 (stereo not shown) | 15.1
O=S(=O)(c1ccc(F)cc1)N1CCN(c2ccccn2)CC1 | -0.814
O=C(Nc1ccc(Cl)cc1C(=O)NCC1CCCO1)c1ccco1 (stereo not shown) | -10.8
COc1ccc(NS(=O)(=O)c2ccc(Cl)c(C(=O)O)c2)cc1S(=O)(=O)N1CCCCC1 | 36.9
CC(C)CN(C(=O)COC(=O)CSc1ccccc1F)c1c(N)n(Cc2ccccc2)c(=O)[nH]c1=O | -0.603
O=C(/C=C/c1ccc2c(c1)OCO2)N1CCN(c2n[nH]c(=O)[nH]c2=O)CC1 | 22.7
O=C(Nc1ccccc1)NC1(C(=O)N2CCC(O)CC2)CCCCC1 | -15.7
Cc1ccc(OCC(O)CN2CCOCC2)c(C)c1.Cl (stereo not shown) | 20.2
NC1=NC(=O)/C(=C/c2ccccc2OS(=O)(=O)c2ccc3ccccc3c2)S1 | 4.27
COC(=O)Cn1cc(C=C2C(=O)NC(=O)NC2=O)c2ccccc21 | 12.5
Cc1ccc(NS(=O)(=O)c2cccc(C(=O)NCCCn3ccnc3)c2)cc1 | 7.72

SMILES | hERG current change (%, negative = inhibition) at 10uM [%]
Cc1ccc(C(=O)CSc2nnc(-c3ccco3)n2Cc2ccccc2)cc1 | -17.8
CC(=O)C(C)Sc1nnc(-c2ccccc2F)n1C1CC1 (stereo not shown) | 26.5
CCCc1cc(=O)[nH]c(SCC(=O)c2c[nH]c3ccccc23)n1 | 23.3
Cn1c(N)c(C(=O)COC(=O)C2CCCCC2)c(=O)n(C)c1=O | -11.2
CC/C(=N/NS(=O)(=O)c1ccc(Cl)cc1)c1ccc(O)cc1 | -27.7
COc1cc(N(C)C)c([N+](=O)[O-])cc1C(=O)N1CCN(Cc2ccccc2)CC1 | 9.99
CC(C)C(OC(=O)c1ccco1)C(=O)NCc1ccccc1 (stereo not shown) | 11.2
CCCN1Cc2cccc(C(=O)Nc3ccc(CC)cc3)c2C1=O | 8.1
Cc1ccc(S(=O)(=O)Nc2ccccc2CNc2ncc(Br)cc2Br)cc1 | 4.66
COC(CNC(=O)C1CCN(S(=O)(=O)c2cccc3nsnc23)CC1)OC | 14.3
COc1ccc2c(c1)c(C(=O)CN1CCC3(CC1)OCCO3)c(C)n2C | -3.05
CS(=O)(=O)Nc1cccc(-c2cnc3ccccc3n2)c1 | -70.4
C=CCOc1ccc(C2C(C#N)=C(N)N(N(C)C)C3=C2C(=O)CCC3)cc1 (stereo not shown) | -32.1
CC1CN(C(=O)CCn2c(=O)oc3ccccc32)CC(C)O1 (stereo not shown) | 6.91
CC(=O)N/C(=C/c1cccnc1)C(=O)Nc1ccc(Cl)cc1 | -24.3
Nc1nc(NCCOCCO)nc(Nc2cccc(F)c2)c1[N+](=O)[O-] | 7.09
CCOC(=O)C1CCCN(C(=O)c2ccc(S(=O)(=O)NCc3ccco3)cc2)C1 (stereo not shown) | -4.7
CC(=O)N(c1ccc2oc(=O)sc2c1)S(=O)(=O)c1cccs1 | -6.67
CCCOc1ccc(C(CC(=O)O)NC(=O)C23CC4CC(CC(C4)C2)C3)cc1 (stereo not shown) | -4.63
CCCC1(CCC)C(=O)NC(=NCCc2ccc(OC)c(OC)c2)NC1=O | 13.4
CCOC(=O)C1CCN(C(=O)c2cccc(N3C(=O)NC4CC3(C)Oc3ccc(C)cc34)c2)CC1 (stereo not shown) | -44.6
Cc1c(C(=O)N2CCN(C3CCS(=O)(=O)C3)CC2)oc2c(F)cccc12 (stereo not shown) | -9.8
